Assay results: PubChem BioAssay AID1508623 (National Center for Advancing Translational Sciences (NCATS), 2021)
About 450 (0.94%) of roughly 48,000 compounds were called active. Roughly 19% stayed inconclusive and do not appear here. Calls follow the shape of the dose curve; as a rule, active = well fitted inhibition curve with a large enough effect; inconclusive = small, poorly fitted or top-dose-only effect; inactive = no such curve, though single readings can be large or run the other way. Some of the results follow.

Test: Primary qHTS for Identification of Small Molecule Inhibitors of Huntingtin Promoter Activity; also: nearly all actives have a fitted effect of over 50% in size
Conditions: HEK293 HTT promoter firefly luciferase reporter (activity 0% = vehicle and -100% = no light), 24 h; series mostly up to 57.5 µM; activity change, negative = inhibition: at the top concentration
Procedure, shortened: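 HEK293 cells carrying firefly luciferase reporters were seeded at 2,500 per well in Opti-MEM and cultured for 24 h. They were then treated with compounds at up to 57.5 uM final for 24 h at 37 degrees C before Dual-Glo luminescence readout.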

Activity change, negative = inhibition, inactive:
CCN(CC)C(=O)C1CCCN(c2ncnc3c2nc2n3CCCCC2)C1 (stereo not drawn) -12.7%
COc1ccc(CCNC(=O)c2cc3c(=O)[nH]c4ccc(C)cc4c3s2)cc1OC -16.4%
COC(=O)c1ccccc1NC(=O)CCCS(=O)(=O)c1nc(-c2ccccc2OC)cc(C(F)(F)F)n1 3.15%
CCOc1ccccc1CNC(=O)CN1C(=O)C2CCCCN2c2ccc(C(=O)N(C)C)cc21 (stereo not drawn) -7.94%
CCOc1ccc(OCC)c(NC(=O)c2c(C)nn(-c3ccccc3)c2-n2cccc2)c1 -27.4%
COc1ccc(CCCc2nnc(SCC(=O)Nc3ccc(Cl)cc3)o2)cc1 -6.94% [at 11.5 µM]
Cc1nn(C)c2c1c(C(F)(F)F)cc(=O)n2CC(=O)NC(C)(C)C -4.55%
CCc1ccccc1NC(=O)c1ccc2[nH]c(C)c(C)c2c1 54%
CCc1ccc(CNC(=O)c2sc3ncnc(N(C)C4CCCCC4)c3c2C)cc1 -28.6%
COc1ccc(-c2cc(-c3ccc(F)cc3)nc3c2COc2ccccc2-3)cc1 -14.1%
CCOc1ccccc1C1Nc2ccccc2-c2nnc(SCc3ccccc3)nc2O1 (stereo not drawn) -3.3%
Cc1c(C(=O)NCc2ccccc2)oc2c1-c1[nH]ncc1CC2 14.5%
CCCN(C(=O)Cn1nc(Cc2ccncc2)c2ccccc2c1=O)c1ccccc1C -21.9%
CCOc1ccc(-c2nnc(SCC(=O)NCCc3ccccc3)nc2-c2ccc(OCC)c(OC)c2)cc1OC 5.21%
COc1ccc(Br)cc1CNC(=O)c1ccc(-n2c(C)cc3c2CCC(C)C3)cc1 (stereo not drawn) -3.72%
Cc1cc(O)c(CN2CCN(c3ccc(F)cc3)CC2)c2oc(=O)cc(C)c12 -22.6%
CCOc1ccc(CCNC(=O)c2nn(-c3ccc(OC)cc3)c(=O)c3c2c2ccccc2n3C)cc1OCC -14.8%
Cc1ccc2[nH]c3c(=O)n(CC(=O)N(C)Cc4ccccc4)ncc3c2c1 -3.71%
CCN(CC)C(=O)c1ccccc1NC(=O)c1cccc(S(=O)(=O)N2CCC(C)CC2)c1 -22.6%
COc1cccc(CNC(=O)c2ccc(CS(=O)Cc3ccc(Cl)cc3)o2)c1 (stereo not drawn) -21.7%
N#Cc1cc2c(=O)n3ccccc3nc2n(-c2nnc(SCc3ccccc3)s2)c1=O -7.03%
Cc1ccc(C(=O)CSc2nnc3ccc4ccccc4n23)cc1 6.41%
Cc1ccc(CNC(=O)C2CCN(c3ncnc4c3nc3n4CCCCC3)CC2)cc1 7%
Cc1ccccc1CNC(=O)c1ccc2c(c1)N(Cc1ccccc1)CCS2 -9.3%
O=C(CCCn1c(=O)c2cccn2c2cccnc21)Nc1ccccc1Br 3.33%
O=c1oc2ccc3ccccc3c2cc1-c1nnc(Nc2cccc(F)c2)s1 33.6%
CCN1CCOC(=O)C1CC(=O)Nc1cc(Cl)ccc1OC (stereo not drawn) -4.72%
Oc1ccc(C=Cc2cc(O)cc(O)c2)cc1 19.9%
CCCCn1c(=O)c2oc3ccccc3c2n(CC(=O)Nc2ccccc2OC)c1=O 1.03%
CCOC(=O)c1c(NC(=O)/C=C/c2ccc(OCC)cc2)sc2c1CCC2 -4.81%
Cc1ccc(CNC(=O)Cn2cc(C(=O)c3ccc(Cl)cc3)c(=O)c3ccc(C)nc32)cc1 7.75%
CCCCNC(=O)[C@@H](c1ccccc1)N1Cc2ccccc2C1=O -14.6%
O=C(CCn1c(=O)c2cccn2c2cccnc21)N1CCN(c2ccc(Cl)cc2)CC1 -12.2%
CNc1oc(/C=C/c2cc(OC)c(OC)c(OC)c2)nc1C#N 17.4%
CCOc1ccccc1NC(=O)CSc1nccn1Cc1ccc(F)cc1 -28.2%
O=C(OCC1CCCO1)c1ccc2c(c1)N(Cc1ccccc1F)C(=O)c1ccccc1S2(=O)=O (stereo not drawn) 3.29%
Cc1cccc(CNC(=O)c2cnc3sc(N4CCOCC4)nn3c2=O)c1 10.7%
Cc1sc2ncn(CC(=O)N(C)c3ccc(Br)cc3)c(=O)c2c1S(=O)(=O)N1CCC(C)CC1 7.11%
Cc1cccc(NC(=O)c2c(C)oc3ncn(CC(C)C)c(=O)c23)n1 0%
CC(=O)N1CCc2cc(S(=O)(=O)CCC(=O)N3CCN(c4cccc(C)c4C)CC3)ccc21 -6.93%
O=C(NCCc1ccccc1)c1cc(-c2ccc(Cl)cc2)on1 3.63%
COc1cccc(NC(=O)Nc2cccc(-c3cn4cccnc4n3)c2)c1 6.66%
CCOc1ccc(-c2nnc(Nc3ccc(S(N)(=O)=O)cc3)c3ccccc23)cc1 -7.72%
CC(C)(C)c1ccc(OCC(=O)N2CCC(c3nc4ccccc4s3)CC2)cc1 -12.6% [at 11.5 µM]
CCCOC1(C(F)(F)F)NC(=O)N(c2ccc(Cl)cc2)C1=O (stereo not drawn) -29.9%
O=C(NC(=O)c1ccc(F)cc1)Nc1ccc(-c2cc(C(F)(F)F)nn2-c2ccccc2)cc1 1.31%
Cc1oc2c(c(C)cc3oc(=O)c(CC(=O)NCCc4ccccc4)c(C)c32)c1C -12.5%
Cc1ccc(NC(=O)Nc2ccc3c(c2)N(C)C(=O)c2ccccc2S3)c(C)c1 5.39%
CCOC(=O)c1c(C)[nH]c(C)c1S(=O)(=O)NCC(=O)Nc1cc(C)ccc1OC -5.29%
CCN1CCN(CCCNC(=O)c2cnn(-c3ccccc3)c2C2CCN(C(=O)OC(C)(C)C)CC2)CC1 -2.11%
Cc1ccc(-c2c(CN3CCN(c4cccc(C(F)(F)F)c4)CC3)csc2C)cc1 -11.2%
COc1cccc(C2C=C(c3ccc(C)c(C)c3)Nc3nnnn32)c1OC (stereo not drawn) -23.1%
O=C(O)CCCC[C@@H]1SC[C@@H]2NC(=O)N[C@@H]21 24%
CN1CCN(c2cc3c(cc2F)c(=O)c(C(=O)O)cn3-c2ccc(F)cc2)CC1 3.05%
COc1cc(NC(=O)c2ccc(C)cc2)ccc1NC(=O)c1cc2ccccc2o1 10.1%
Cc1ccc(C)c(CN2C(=O)C(=O)c3ccccc32)c1 -24%
COCC(=O)Nc1c(I)c(C(=O)NCC(O)CO)c(I)c(C(=O)N(C)CC(O)CO)c1I (stereo not drawn) 5.46%
O=C(NCCc1ccccc1)c1ccc(CS(=O)(=O)c2ccc(Br)cc2)o1 -12.5%
Cc1cc2nn(-c3ccccc3)nc2cc1NC(=O)c1cccc2c(Cl)cccc12 6.76%
CCSc1nnc2n(-c3cccc(C)c3)c(=O)c3c4c(sc3n12)CCCC4 -6.91%
Cc1coc2ccccc2c1=O 2.02%
Cc1ccc2onc(CNC(=O)N3CCN(c4cccc(C)c4C)CC3)c2c1 -47.3%
CCN(CCCNC(=O)Cn1ncc2c([nH]c3ccc(C)cc32)c1=O)c1cccc(C)c1 1.3%
COc1ccc(C2CC(=O)Nc3c2c(C)nn3-c2nncc(-c3ccc(C)cc3)n2)c(OC)c1OC (stereo not drawn) -16.9%
Cc1cccc(CCNC(=O)c2sc3nc4n(c(=O)c3c2C)CCCC4)c1 40.1%
Cc1csc2nc(-c3cccc(NC(=O)C(C)C)c3)cn12 4.38%
CCOc1ccc(-c2nc(SCC(=O)Nc3ccc4c(c3)OCO4)c(-c3ccc(F)cc3)[nH]2)cc1 -27.5%
O=C1c2oc3ccccc3c(=O)c2C(c2ccccc2)N1Cc1ccc2c(c1)OCO2 (stereo not drawn) -15.1%
CN1C(=O)c2ccccc2Sc2ccc(NC(=O)c3ccccc3F)cc21 -29.2%
CCOC(=O)c1cccc(NC(=O)[C@@H](c2ccccc2)N2Cc3ccccc3C2=O)c1 -16.9%
Cc1c(-c2nsc(NC(=O)c3ccccc3)n2)nnn1-c1ccc(C(F)(F)F)c(Cl)c1 -20.9%
Cc1cc(C)c(NC(=O)Cc2csc(C)n2)c(Cl)c1 15.3%
CC1COc2c(N3CCN(C)CC3)c(F)cc3c(=O)c(C(=O)O)cn1c23 (stereo not drawn)
CCN1C(=O)c2ccccc2Sc2ccc(C(=O)NCCCN(CC(C)C)CC(C)C)cc21 -4.62%
COC(=O)c1c(-c2cccs2)csc1NC(=O)COc1ccc(C(C)(C)C)cc1 -17.7%
CCOc1ccccc1C1C(C(=O)N2CCCCC2)=C(C)Nc2nc3ccccc3n21 (stereo not drawn) 0.564%
CCOc1ccccc1NC(=O)c1nn(-c2ccc(C)cc2)c(=O)n(C)c1=O -11.8%
Cc1ccc(C(=O)Nc2ccc(-c3cn4cccnc4n3)cc2)cc1C 31.5%
COc1ccccc1CNc1ccc(-c2nc(-c3cccnc3)no2)cc1[N+](=O)[O-] 4.65%
CCc1ccc(NC(=O)c2sc(-n3nc(C)c(Cc4ccc(OC)cc4)c3C)nc2C)cc1 -12.2%
COc1cccc(NC(=O)CN2C(=O)c3cccnc3Oc3ccc(Cl)cc32)c1 -3.04%
COc1ccc(N(C)C(=O)CCn2cnc3onc(-c4ccc(F)cc4)c3c2=O)c(OC)c1 -22.7%
N[C@@H](CSSC[C@H](N)C(=O)O)C(=O)O 9.26% [at 0.739 µM]
COc1ccc(C2CC(=O)N(CC(=O)Nc3cc(C)ccc3C)c3ccccc3S2)cc1 (stereo not drawn) -11.3%
Cc1cc2n(n1)C(c1cc(C(C)(C)C)c(O)cc1O)Nc1ccccc1-2 (stereo not drawn) -28.2%
CCOc1ccc(OCC)c(NC(=O)c2nnn(CC(=O)Nc3ccc(C)cc3C)c2N)c1 -1.21%
COc1ccccc1CNC(=O)C(NS(=O)(=O)c1cccs1)C(C)C (stereo not drawn) -12.5%
Cc1ccc(-c2nc3sc(CCNC(=O)c4ccc(Br)o4)c(C)n3n2)cc1 8.09%
COc1ccc(-c2cc3ccc(O)c(CN4CCOCC4)c3oc2=O)cc1OC 5.3%
CCCCOc1ccc(C(=O)Nc2cccc(-c3nc4cccnc4s3)c2)cc1 -8.88%
CCCCc1ccc(NC(=O)c2cc3c(=O)n4ccccc4nc3s2)cc1 1.28%
CCOc1ccc(NC(=O)CSc2nc3c(oc4ccccc43)c(=O)n2-c2ccccc2C)cc1 -12%
Cc1ccc(NC(=O)NCCc2c(C)nn(C)c2C)cc1Cl 12.5%
COc1ccc(C2=NN(CC(=O)NCCc3ccc(OC)c(OC)c3)C(=O)CC2)cc1 0.955%
CCCCN(CC)CCCNC(=O)CCN1N=C(c2ccc(OC)cc2)CCC1=O -18.3%
COc1cccc(CNC(=O)c2cc3c(s2)-c2ccccc2OC3)c1 -5.44%
COc1ccccc1NC(=O)C1=C(C)Nc2ncnn2C1c1ccccc1C(=O)O (stereo not drawn) -6.21%
COc1ccc(NC(=O)c2cc(C3CC3)nc3c2c(C)nn3-c2ccccc2)cc1 -18.8%
